Measurements as given in PubChem BioAssay AID1030 (National Center for Advancing Translational Sciences (NCATS), 2008).
Hit rate of the full screen: of about 220,000 compounds, about 16,000 (7.3%) were called active. Inconclusive means that the source gave no clear call. Such entries were picked first, then a sample of the others. The call rests on the fitted dose curve; in most records, active means well fitted inhibition curve with a large enough effect (not every such curve was filed as active); inconclusive means small, poorly fitted or top-dose-only effect, or another doubt; inactive means no such curve, though single readings can be large or run the other way. No potency is given beside an inconclusive call; the fits are too rough.
Potency means the concentration at half of the fitted maximal effect; tags describe the fitted curve by direction and shape.
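Wherever activity, negative = inhibition is given: plate controls were no enzyme wells and a reference inhibitor.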

These compounds were tested against Aldehyde dehydrogenase 1A1 (Homo sapiens) (UniProt P00352) (assay: qHTS Assay for Inhibitors of Aldehyde Dehydrogenase 1 (ALDH1A1)). Settings: Purified ALDH1A1, NADH fluorescence, propionaldehyde substrate; series mostly up to 75.3 µM.
Chain of UniProt P00352 (P00352 whole entry, looked up): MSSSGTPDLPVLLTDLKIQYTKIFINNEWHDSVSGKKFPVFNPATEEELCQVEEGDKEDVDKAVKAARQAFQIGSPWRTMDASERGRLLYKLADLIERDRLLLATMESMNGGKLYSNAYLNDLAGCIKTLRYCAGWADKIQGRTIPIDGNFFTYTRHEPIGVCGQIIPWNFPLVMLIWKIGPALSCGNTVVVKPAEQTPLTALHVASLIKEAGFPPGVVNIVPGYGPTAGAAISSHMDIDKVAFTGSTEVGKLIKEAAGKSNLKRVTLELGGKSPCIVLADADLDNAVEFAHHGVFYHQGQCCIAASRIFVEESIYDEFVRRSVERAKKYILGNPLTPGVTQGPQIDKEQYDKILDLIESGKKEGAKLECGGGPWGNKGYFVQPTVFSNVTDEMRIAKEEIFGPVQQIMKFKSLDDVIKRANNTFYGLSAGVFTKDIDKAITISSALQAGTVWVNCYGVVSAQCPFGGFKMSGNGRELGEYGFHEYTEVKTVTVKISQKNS
In the case of `CCOC(=O)c1sc2nc3c(cc2c1N)COC(C)(C)C3`, the Potency is reported as inconclusive [inhibitor, partial curve].
For `CCn1c(C)nc2cc(C(=O)NNC(=S)Nc3ccc(F)cc3)ccc21`, the Potency was inconclusive [inhibitor, single point].
With `C[N+](C)(C)c1nc(N)nc2c1ncn2[C@H]1O[C@@H](CO)[C@@H](O)[C@H]1O` the activity, negative = inhibition was inactive: 0.909% [at 13.5 µM].
`CCN1CC(CN(C)Cc2cn(-c3cccc(C)c3)nc2-c2cccc(F)c2)CC1=O` (stereo not drawn) was tested, and the Potency was inconclusive [inhibitor, single point].
`COc1ccc(S(=O)(=O)Cc2ccc(C(=O)N3CCN(C(=O)c4ccco4)CC3)o2)cc1` was tested, and the Potency was active: 5.97 µM.
For `Cc1ccc(N=Cc2c(O)ccc3ccccc23)cc1F`, the Potency was inconclusive [inhibitor, single point].
For `COc1cccc(Cn2c(=O)c(-c3ccc(F)cc3)nc3cnc(OC)nc32)c1`, the Potency was inconclusive [inhibitor, single point].
`Cc1cccc(NC(=S)NCCC(c2ccccc2)c2ccccc2)c1` was tested, and the Potency was “inactive”.
In the case of `O=C(CSCc1cnn(-c2ccccc2)c1-n1cccc1)NCc1cccs1`, the Potency is reported as inconclusive [inhibitor, single point].
`Cc1ccc(S(=O)(=O)C2(C(=O)N3CCCCCC3)CC2)cc1` was tested, and the Potency was active: 7.08 µM.
For `COc1ccc2oc(=O)c(C(=O)Oc3ccc(NC(C)=O)cc3)cc2c1`, the Potency was inconclusive [inhibitor, single point].
`COc1cccc(-n2c(SCC(=O)Nc3cc(C)on3)nc3c([nH]c4ccccc43)c2=O)c1` was tested, and the Potency was inconclusive [inhibitor, single point].
For `Cn1nc(C(F)(F)F)c2cc(NC(=O)OCc3ccc(F)cc3)sc21`, the Potency was inconclusive [inhibitor, single point].
In the case of `O=C(Nc1ccccc1F)Nc1cc(S(=O)(=O)N2CCOCC2)ccc1N1CCCC1`, the Potency is reported as inconclusive [inhibitor, single point].
For `Cc1ccc(-c2cc3nc(-c4ccc(Br)cc4)cc(N)n3n2)cc1`, the Potency was inconclusive [inhibitor, single point].
With `O=C(NCCc1csc(-c2cccnc2)n1)c1cccc2ccccc12` the Potency was inconclusive [inhibitor, single point].
With `O=C(c1ccco1)N1CCC[C@@]2(CCN(c3ccccn3)C2)C1` the Potency was inconclusive [inhibitor, partial curve].
In the case of `Cc1ccc(C)c(NC(=O)CSc2nc3c(oc4ccccc43)c(=O)n2-c2ccccc2)c1`, the Potency is reported as inconclusive [inhibitor, full curve].
For `Clc1ccc(OCCn2ccnc2)c(Br)c1`, the Potency was inconclusive [inhibitor, single point].
With `CC(=O)N[C@@H](Cc1c[nH]c2ccccc12)C(=O)OCC(=O)Nc1ccc(S(=O)(=O)N(C)C)cc1` the Potency was active: 3.98 µM.
In the case of `Cc1ccc(Nc2nnc(SCC(=O)Nc3ccc(S(=O)(=O)N4CCOCC4)cc3)s2)cc1`, the Potency is reported as “inactive”.
In the case of `Cc1ccc(NC(=O)N2CCC(C(=O)NCC(C)C)CC2)cc1`, the Potency is reported as “inactive”.
`COc1ccc(C(=O)NCCSCc2ccccc2C)cc1` was tested, and the Potency was inconclusive [inhibitor, partial curve].
`O=C(CN(c1cccc(C(F)(F)F)c1)S(=O)(=O)c1ccc(Cl)c([N+](=O)[O-])c1)NCc1ccccc1Cl` was tested, and the Potency was inconclusive [inhibitor, single point].
`CC(C)CN(C(=O)c1nn(C)c(=O)c2ccccc12)c1nc2ccccc2s1` was tested, and the Potency was “inactive”.
In the case of `O=C(COC(=O)c1ccc(=O)[nH]c1)Nc1cccc(S(=O)(=O)N2CCOCC2)c1`, the Potency is reported as inconclusive [inhibitor, single point].
In the case of `Cc1ccc(N/C=C/C(=O)C(C)(C)C)c(O)c1`, the Potency is reported as inconclusive [inhibitor, partial curve].
In the case of `CCCn1nc(NS(=O)(=O)c2ccccc2)c2cc3ccccc3nc21`, the Potency is reported as inconclusive [inhibitor, single point].
In the case of `COc1ccccc1C(CC(=O)Nc1ccccc1C)c1ccc(OC(C)C)cc1` (stereo not drawn), the Potency is reported as inconclusive [inhibitor, partial curve].
With `Cc1nc2ccccc2oc1=O` the Potency was “inactive”.
`CCCCCc1nc2sc3c(c2c(=O)n1NC(=O)c1ccc([N+](=O)[O-])cc1)CC(C)(C)OC3` was tested, and the Potency was active: 8.91 µM.
`C/C(Cc1ccccc1)=N\NC(=O)CNC(=O)c1ccc(Cl)cc1` was tested, and the Potency was “inactive”.
With `COc1cc(/C=N/NC(=O)c2cc(-c3ccccc3OC(C)C)nc3ccccc23)ccc1O` the Potency was “inactive”.
With `Cc1ccc(/C=C/C(=O)Nc2cc(S(=O)(=O)N3CCCCCC3)ccc2OCC(F)(F)F)o1` the Potency was active: 28.2 µM.
For `CC(=O)c1cccc(NC(=O)N2CCCC2C(=O)NCc2ccc(F)cc2)c1` (stereo not drawn), the Potency was inconclusive [inhibitor, single point].
In the case of `CCOC(=O)CSc1nc2c(c(-c3ccc(C)o3)c1C#N)CCCC2`, the Potency is reported as inconclusive [inhibitor, single point].
`CC1(C)CC(=O)C(C(C#Cc2ccccc2)C2=C(O)CC(C)(C)CC2=O)=C(O)C1` was tested, and the Potency was active: 6.31 µM.
For `CCC1=NN(C(=O)C(=O)Nc2ccc(Br)cc2)C(O)(C(F)(F)F)C1` (stereo not drawn), the Potency was inconclusive [inhibitor, single point].
In the case of `O=C(Nc1cccnc1)OC1CCCC1`, the Potency is reported as “inactive”.
With `COCCNC(=O)CSC1=N/C(=C/c2ccc(Cl)c(Cl)c2)C(=O)N1c1ccccc1F` the Potency was inconclusive [inhibitor, partial curve].
With `CC(C)c1cc(C(=O)Nc2sc3c(c2C#N)CCC3)no1` the Potency was active: 17.8 µM.
For `CC1CCN(c2ccc(N3C(=O)C4CCCCC4C3=O)cc2[N+](=O)[O-])CC1` (stereo not drawn), the Potency was “inactive”.
`O=C(CC1(O)C(=O)N(C/C=C/c2ccccc2)c2ccccc21)c1ccccn1` (stereo not drawn) was tested, and the Potency was active: 0.794 µM.
With `O=C(Cc1c(C(=O)O)[nH]c2ccccc12)NCCN1CCN(c2ccccc2F)CC1` the Potency was inconclusive [inhibitor, single point].
With `O=C(Cc1cn2ccsc2n1)Nc1nc2c(s1)CN(Cc1ccccc1)CC2` the Potency was active: 10 µM.
In the case of `Cc1ccc(C(=O)Nc2ccccc2C(=O)N2CCCCCC2)cc1`, the Potency is reported as “inactive”.
`COCCNC(=S)NN=C1CCC(c2ccccc2)CC1` (stereo not drawn) was tested, and the Potency was inconclusive [inhibitor, single point].
For `C/C(CC(=O)Nc1ccccn1)=N\NC(=O)C(=O)Nc1cccc(Cl)c1C`, the Potency was inconclusive [inhibitor, full curve].
`COc1ccc(-n2c(O)c(C=Nc3ccccc3)c3ccccc3c2=O)cc1` was tested, and the Potency was “inactive”.
In the case of `CC(=O)OC[C@@]12C(=O)[C@@H](O)[C@@H](C)[C@]3(C[C@@H](c4ccoc4)O[C@@H]3OC(C)=O)[C@H]1CCC[C@]21CO1`, the Potency is reported as “inactive”.
For `CCCCN1C(=O)c2ccc(C(=O)NCCN3C(=O)S/C(=C\c4cccnc4)C3=O)cc2C1=O`, the Potency was active: 1.26 µM.
In the case of `CCNC(=S)N1CCN(Cc2ccccc2)CC1`, the Potency is reported as active: 15.8 µM.
For `Cc1cccc(N2CCN(C(=O)CCCOc3ccccc3)CC2)c1C`, the Potency was inconclusive [inhibitor, single point].
`N#Cc1cc2c(nc1SCc1cccnc1)CCCCC2` was tested, and the Potency was inconclusive [inhibitor, partial curve].
In the case of `COC(=O)c1ccccc1NC(=O)CCS(=O)(=O)c1ccc(Br)s1`, the Potency is reported as inconclusive [inhibitor, single point].
With `Cc1cccc2c(C(=O)N3CCN(C(=O)c4ccco4)CC3)cc(-c3cccc(Br)c3)nc12` the Potency was inconclusive [inhibitor, single point].
`COc1ccc(N=C2SC(C(=O)O)CC(=O)N2Cc2ccc(OC)c(OC)c2)cc1` (stereo not drawn) was tested, and the Potency was inconclusive [inhibitor, single point].
`CCOC(=O)N1CCC(NC(=O)c2cc3cc4cc(OC)ccc4nc3o2)CC1` was tested, and the Potency was inconclusive [inhibitor, partial curve].
`CCc1cc(C(=O)O)c(NC(=O)C(c2ccccc2)c2ccccc2)s1` was tested, and the Potency was active: 12.6 µM.
`CS(=O)(=O)Nc1cccc(C2=NN(S(=O)(=O)c3ccccc3)C(c3ccco3)C2)c1` (stereo not drawn) was tested, and the Potency was inconclusive [inhibitor, single point].
For `c1ccc(-c2csc(NNC3=NCCCCC3)n2)cc1`, the Potency was active: 31.6 µM.
For `O=C(c1ccco1)N1CCN(CC(=O)N2c3ccccc3CCc3ccccc32)CC1`, the Potency was inconclusive [inhibitor, single point].
With `CC1(C)CC(=O)C(N=Nc2c(F)cccc2F)=C(O)C1` the Potency was active: 12.6 µM.
In the case of `Cc1cc(C)nc(SCc2ccc3nonc3c2)n1`, the Potency is reported as inconclusive [inhibitor, single point].
With `CC(=O)n1cc([C@H]2C=C(C(=O)N3CCOCC3)O[C@@H](OCc3ccc(CO)cc3)C2)c2ccccc21` the Potency was inconclusive [inhibitor, partial curve].
For `c1ccc(-c2nc3ccccc3o2)nc1`, the Potency was inconclusive [inhibitor, single point].
`O=C(Cc1ccc(-n2c(=S)[nH]c3ccccc3c2=O)cc1)N1CCN(c2ccccc2)CC1` was tested, and the Potency was inconclusive [inhibitor, single point].
For `O=C(OC1Cc2c(O)cc(O)cc2OC1c1cc(O)c(O)c(O)c1-c1c(C2Oc3cc(O)cc(O)c3CC2OC(=O)c2cc(O)c(O)c(O)c2)cc(O)c(O)c1O)c1cc(O)c(O)c(O)c1` (stereo not drawn), the Potency was “inactive”.
